Data: PubChem BioAssay AID1345082 (National Center for Advancing Translational Sciences (NCATS), 2018)
Out of some 94,000 compounds screened, about 4,000 (4.3%) were called active. Inconclusive means that the source gave no clear call. Such entries were picked first, then a sample of the others. Calls follow the shape of the dose curve; as a rule, active = well fitted inhibition curve with a large enough effect; inconclusive = small, poorly fitted or top-dose-only effect; inactive = no such curve, though single readings can be large or run the other way. A potency beside an inconclusive call is a rough fit, not a confirmed value.

assay: Cytotoxic Profiling in NIH 3T3 Cell Line of Diverse Libraries Using Quantitative High-Throughput Screening; details: NIH 3T3 viability, CellTiter-Glo ATP luminescence, 48-72 h; activity change, negative = cytotoxicity: at 96.7 µM (top of the series) unless noted; series mostly up to 96.7 µM; also: nearly all actives have a fitted effect of over 55% in size
Method in brief: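 ATP-dependent luminescence (CellTiter-Glo) served as the viability signal for NIH 3T3 cells treated with compound for 48 or 72 hr at 37 °C.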
% is scaled to controls: 0 for no effect and ±100 for the full control effect; potency is read from the fitted curve at half-maximal effect; tags tell the direction and shape of the fitted curve.

SMILES | Potency | activity change, negative = cytotoxicity | outcome
O=C(NC1CCCCC1)c1nc2sccn2c1-c1ccc(F)cc1 | inconclusive: 14.1 µM [inhibitor, full curve] |  | 
CC(C)(O)c1cc(CC2(NCc3ccc(OC(F)(F)F)cc3)COC2)no1 | inconclusive: 112 µM [inhibitor, single point] |  | 
C[C@H](C(=O)N1CCCC1)C1CC[C@@]2(C)Cc3sc(-c4ccccc4)nc3[C@@H](C)[C@@H]2[C@H]1O (stereo partly drawn) | inconclusive: 39.8 µM [inhibitor, partial curve, poor fit] |  | 
COc1ccc(-c2nc3cc(C)ccc3cc2CN2CCC(NC(C)=O)C2)cc1 (stereo not drawn) | inconclusive: 56.2 µM [inhibitor, partial curve, poor fit] |  | 
COc1cccc([S+](=O)([O-])N2CCC3(CC2)CC(=O)Nc2ccccc2O3)c1 |  | inactive: -15.9% | 
CCNC(=O)[C@@H]1C[C@@H](NC(=O)c2cn(C)nc2C)CN1Cc1ccccc1 |  | inactive: -4.34% | 
Cc1cccc(OCCc2noc(C3CCN(C(=O)CN4CCCCCC4)C3)n2)c1 (stereo not drawn) | inconclusive: 44.7 µM [inhibitor, partial curve, poor fit] |  | 
O=C(Nc1ccccc1)Nc1ccc([C@H]2OCC(=O)N(Cc3ccc(F)cc3)[C@@H]2CO)cc1 | inconclusive: 79.4 µM [inhibitor, partial curve] |  | 
N#Cc1ccc(C(=O)NC2CCN(c3cc(-c4ccccc4)[nH]n3)CC2)cc1 | inconclusive: 44.7 µM [inhibitor, partial curve, poor fit] |  | 
COCCOC1CCOC2(CCN(C(=O)CCCc3ccccc3)CC2)C1 (stereo not drawn) |  | inactive: -15.2% | 
CC(=O)N1CC2(CCCN(Cc3cc4ccccc4[nH]3)C2)Cc2ccccc21 (stereo not drawn) | active: 25.1 µM |  | 
CC(C)CNC(=O)c1ccnc(-c2nnc3ccc(N4CCN(C)CC4)nn23)c1 | inconclusive: 100 µM [inhibitor, partial curve, poor fit] |  | 
COCCOC1CCOC2(CCN(S(=O)(=O)c3ccc(F)cc3)CC2)C1 (stereo not drawn) |  | inactive: -14.2% | 
Cc1cccc(NC(=O)N2CCC3(CC2)SCC(=O)N3Cc2ccco2)c1 |  | inactive: -24% | 
FC(F)(F)c1cccc(C2=NOC3(CCN(Cc4ccccc4)C3)C2)c1 (stereo not drawn) | inconclusive: 50.1 µM [inhibitor, partial curve, poor fit] |  | 
O=C(c1ccc(F)cc1)N1CC(c2noc(-c3ccccc3)n2)C1 |  | inactive: -14.5% | 
CC(C)n1c(CNC(=O)C2CC(=O)N(C3CCCC3)C2)nc2ccccc21 (stereo not drawn) | inconclusive: 44.7 µM [inhibitor, partial curve, poor fit] |  | 
C[S+](=O)([O-])CCn1ncc2cc(OCc3cccc(-c4ccoc4)c3)ccc21 | inconclusive: 56.2 µM [inhibitor, partial curve, poor fit] |  | 
CCCN(CC1CCOC1)S(=O)(=O)c1cccc(Br)c1 (stereo not drawn) |  | inactive: -0.0897% | 
NS(=O)(=O)c1ccc(CNc2nccc(-c3cccnc3)n2)cc1 | inconclusive: 28.2 µM [inhibitor, full curve, poor fit] |  | 
CC(C)(Oc1nn(Cc2cccc(Cl)c2)c2ccccc12)C(=O)Nc1cccnc1 | inconclusive: 39.8 µM [inhibitor, partial curve, poor fit] |  | 
Cc1cc(C(=O)NCC2Cn3cccc3CN2Cc2ccccc2)n[nH]1 (stereo not drawn) |  | inactive: -22.2% | 

SMILES | Potency | activity change, negative = cytotoxicity | outcome
COc1ccc(-c2ccc(C(=O)N3CCC(NC(=O)c4ccccc4Cl)C3)cc2)nn1 (stereo not drawn) |  | inactive: -24.1% | 
CC(C)N1C[C@H](O)C[C@H]1c1nnc2n1CCN(C(=O)c1ccc(Cn3ccnc3)o1)CC2 |  | inactive: -6.03% | 
CCc1nc2c(c(-c3ccc(OC)cc3)n1)CCN(Cc1ccc(C#N)cc1)CC2 |  | inactive: -14.5% | 
O=C(Cc1ccc(F)cc1)N1CCC2(CC1)CN(Cc1ccccc1)CC2CO (stereo not drawn) | inconclusive: 44.7 µM [inhibitor, partial curve, poor fit] |  | 
COCc1ccc2c(c1)c(OC(C)(C)C(=O)N1CC(O)C1)nn2Cc1cccnc1 | active: 79.4 µM |  | 
COC(=O)[C@@H]1Cc2ncn(Cc3ccc(Cl)cc3)c2CN1S(=O)(=O)c1cccs1 | inconclusive: 79.4 µM [inhibitor, partial curve, poor fit] |  | 
COc1cccc(-c2[nH]cnc2-c2ccccc2)c1OCCCn1ccnc1 | inconclusive: 56.2 µM [inhibitor, partial curve, poor fit] |  | 
C[S+](=O)([O-])NCCNC(=O)c1cccc(-c2ccsc2)c1 |  | inactive: -20.2% [at 138 µM] | 
COC1C(=O)N(c2cccc(F)c2)C12CCN(C(=O)c1cc(C)n(C)n1)CC2 (stereo not drawn) |  | inactive: -9.87% | 
COCC1CN(C)CC12CCN(Cc1ccc(OC)c(OC)c1Cl)CC2 (stereo not drawn) | inconclusive: 50.1 µM [inhibitor, partial curve, poor fit] |  | 
CC(C)NC(=O)Cn1ccn2nc(-c3ccc(F)cc3)c(CO)c2c1=O |  | inactive: -9.54% | 
Fc1ccc(CN2CCNc3cc(Nc4ccccc4)ncc3C2)cc1F | active: 39.8 µM |  | 
Cc1ccc(-c2cc3c(=O)n(CCNC(=O)C4CCCCC4)ccn3n2)cc1C |  | inactive: 0.35% | 
CN(Cc1ccc2nonc2c1)C(=O)C1CCC(=O)N(Cc2ccc(Cl)cc2)C1 (stereo not drawn) | inconclusive: 56.2 µM [inhibitor, partial curve, poor fit] |  | 
CCc1cccc(OCC(=O)c2ccc3c(c2)N(CC(=O)NCc2ccco2)C(=O)CO3)c1 |  | inactive: -18.9% | 
CCOC(=O)c1cccc(NC(=O)c2ccc3c(c2)N(C)C2CCCCN2C3=O)c1 (stereo not drawn) | inconclusive: 44.7 µM [inhibitor, partial curve, poor fit] |  | 
O[C@H]1CC[C@@H](Cc2cc(COc3ccccc3)on2)O[C@@H]1CN(CC1CC1)CC1CC1 | inconclusive: 100 µM [inhibitor, partial curve, poor fit] |  | 
CC(=O)c1cccc(NC(=O)Cn2c(=O)n(-c3ccccc3)c(=O)c3c2cc(C)n3C)c1 |  |  | inactive
O=C(NC1CCN(c2ccc3nnc(C4CC4)n3n2)CC1)c1ccccc1 |  | inactive: 4.27% | 
CC(=O)Oc1c(-c2ccc(NC(=O)c3ccco3)cc2)c(-c2cccc(C)c2)nn1-c1ccc(F)cc1 | inconclusive: 44.7 µM [inhibitor, partial curve, poor fit] |  | 
CCOC(=O)Cn1nc2n(c1=O)CCN(Cc1cccc(Cl)c1)C2=O |  |  | inactive
